According to the supplement of paper PMC10338343:
± gives the standard deviation. The list shows a part of the results, in another mix than the full data.

test system: MIWI (PIWIL1) piRISC loaded with piRNA #1 (30 nt); assay: pre-steady-state target cleavage rate (min^-1); MIWI and MILI are mouse PIWI proteins and EfPiwi is from a freshwater sponge; tags in brackets are library labels; higher = faster piRNA-guided slicing of the target; details: guide: piRNA #1 5'p-UGAGGUAGUAGGUUGUAUAGUAUCCAGAGG; auxiliary factor: 500 nM mouse GTSF1
In short: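 Cleave-'n-Seq: a transcribed, DNA-blocked target RNA library (0.1 nM) was mixed with 1 nM active affinity-purified piRISC carrying one synthetic guide, with or without 500 nM GTSF1 partner protein, in HEPES–potassium acetate buffer at 33 °C for 0–8 or 0–960 min. Uncleaved targets were sequenced and normalised to depth and to weakly complementary targets. Three trials were pooled, and k3 was capped at 0.0001 min^-1. The pre-steady-state cleavage rate came from a burst-and-steady-state fit.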

Row | Sequence | pre-steady-state target cleavage rate
1 | GGACUGGAUACUAUACAACGUACUACCUCA | 1.09 ± 0.074
2 | GGAGAGGUUACUAUUCAACCUACUACCUCA | 1.21 ± 0.057
3 | GGAGACGCUACUAUACAACCUACUACCUCA | 1.79 ± 0.11
4 | GGAGACCUUACUAUACAACCUACUACCUCA [g2:g22:cont:t1A] | 1.52 ± 0.11
5 | GGAGACCUAUGUUUACAACGUACUACCUCA | 0.00344 ± 0.0033
6 | GGUCUGGAUACUAUACUUGGAUGAUGGAGA [g15:g28:cont:t1A] | < 0.0001
7 | GGAGACGAUACAAUACAACCUUCUACCUCA | 0.453 ± 0.033
8 | GGAGACCUAUCUAUACAUCGUACUACCUCA | 0.004 ± 0.0024
9 | GGAGAGGAUACUAUACAACCUACAACGUCA | 0.00836 ± 0.0037
10 | GGAGACCUUACUAUUCAACCUACUACGUCA | 0.678 ± 0.064
11 | GGAGACCUUACUAUUCAACCUAGUACCUCA | 0.395 ± 0.04
12 | GGAGAGGAUUGAAUACAACCUACUACCUCA | 0.144 ± 0.021
13 | GGAGAGGAAACUAUACAACCUACUAGCUCA | 0.274 ± 0.053
14 | GCUCUGGAUACUAUACAUCCUACUUCCUCA | 0.433 ± 0.046
15 | GGUCUGGAUAGUAAACAACCUACUACCUCA | 0.676 ± 0.053
16 | GGAGACCUUACUAUACAACCUACUACCUCU [g2:g22:cont:t1U] | 1.45 ± 0.084
17 | GGUCUGGACUACUAUACAACCUACUACCUCA | 1.63 ± 0.089
18 | GGAGACCUAUCUAUACAACCAACUACCUCA | 0.0118 ± 0.0025
19 | GGACUGGAUACAAUACAACCUACUACGUCA | 0.563 ± 0.054
20 | GCUCUGGAUACUAUACAACCUAGUUCCUCA | 0.327 ± 0.062

Row | Sequence | pre-steady-state target cleavage rate
21 | GGUCUGGAUACAAUACAACCUACUACCUGA | 0.664 ± 0.093
22 | GGUCUGGAUACAAUACAACCAACUACCUCA | 0.112 ± 0.013
23 | GGAGACCUAACUAAACAACCUACUACCACA | 0.217 ± 0.08
24 | GGAGAGGAUACCUAUACAACCUACUACCUCA | 1.27 ± 0.079
25 | GGAGACCUAACUAUACAACCAACUAGCUCA | 0.00428 ± 0.0038
26 | GGAGACCUAACUAUACAACCUACUAGCCUCA | 0.597 ± 0.051
27 | CCUCUGGAUACUAUACAACGUACUUCCUCA | 0.316 ± 0.043
28 | CCUCUGGAUACUAUAGAACCUACUACCACA | 0.372 ± 0.042
29 | GUUCUGGAUACUAUACAACCUACUACCUCA | 1.93 ± 0.11
30 | GGAGACCUAUCUAUACAACGUACUACCACA | 0.113 ± 0.023
31 | GGAGACCUAUCUAUACAACCUACUACGUCA | 0.667 ± 0.053
32 | GGAGACCAUACUAUACAAACUACUACCUCA | 0.758 ± 0.04
33 | GGACUGGAUACUAAACAACCUACUAGCUCA | 0.0977 ± 0.019
34 | GGAGACCAUACUAUACAACCUACUACGACA | 0.803 ± 0.063
35 | GGAGACGAUUCUAAACAACCUACUACCUCA | 0.91 ± 0.1
36 | GCUCUGGAUACUAUACAAACUACUACCUCA | 1.11 ± 0.048
37 | GGAGACCUUACUAUACCACCUACUACCUCA | 0.971 ± 0.072
38 | GCUCUGGAUAACUAUACAACCUACUACCUCA | 1.17 ± 0.075
39 | GGAGUGGAUACUAUCAACCUACUACCUCA | 1.58 ± 0.11
40 | GGAGAGGAUACUAUUCAACCUACUAGCUCA | 0.246 ± 0.03
